According to the supplement of paper PMC10126150:
Values marked as one replicate rest on one cluster of the flow cell; about a third of the high ones do not repeat.

System: ATP
Assay: switch fluorescence ratio, 500 uM ATP over buffer (Cy3 cluster intensity, sum of 5 cycles each) (fold (ratio)); higher = stronger signal-on switching upon ATP binding; sequences stand for … in TCGTCGGCAGCGTCAGATGTGTATAAGAGACAGTTTTTTTTTTTTTTTTTTTTTTTTT…TC
Details: aptamer strand: ATP DNA aptamer (quencher-CACCTGGGGGAGTATTGCGGAGGAAGG + anchor), 100 nM annealed; ATP concentration: 500 uM; one replicate
How it was run: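 The fluorescence ratio divides summed target-cycle Cy3 intensity by summed buffer-cycle Cy3 intensity for each cluster and is averaged per switch-domain sequence. Cy3-labelled switching-strand clusters on a modified Illumina MiSeq flow-cell were annealed to 100 nM quencher-labelled ATP aptamer, then imaged in selection buffer and again after 15 min with 500 uM ATP at 22 °C. Five such cycles were run, with NaOH stripping and re-annealing between them, and clusters outside 100-1000 RFU were excluded.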
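Note: ATP exposure 15 min at 22 °C before imaging.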

Sequence | switch fluorescence ratio
ACGTAGAATT | 1.12
CAGGAAGCTA | 1.17
GGGGTCATAA | 1.01
GAGGTGTGCG | 0.997
GGAGCCGAAT | 1.02
ATGTTACAGC | 1.02
TGCTAGGCGA | 1.03
AGGGATCCCG | 0.972
TGAGGCAAAA | 1.1
TAAGTTTAAA | 0.956
ACATGTTTTG | 0.981
GAATGGCTAA | 0.988
GAGGATATAA | 1.05
GCAGAGCCGG | 1.03
TTTTCTATCC | 1.06
GGACCAGAGT | 1
AGCTGGCGG | 0.996
CTAGATGTGC | 0.941
AAGAACGCGT | 1.21
CGACGTTTTG | 0.992
CTTAGTTCTT | 1.04
AAAGTGAAGC | 1
AAGCATCAGA | 0.98
ATGGCGAGAG | 1.09
AGACGAGGA | 1.07
GTTGTGGGAG | 0.985

Sequence | switch fluorescence ratio
GGTAATCTTC | 0.975
TTGCCCTAGG | 1.12
AGGGGTATCC | 0.978
ATGTTGGCAG | 1.03
TATCAATTAC | 1.11
GAAACTCTTG | 0.937
GCCTTTTTG | 0.997
CTGTTCCCCG | 1.07
CATTATTTCC | 1.12
TACAACCGTT | 1.01
GTGCGTGGTG | 1.01
ATCGACTCCC | 1.8
CTATTGAAGG | 0.98
GGCCCTAATT | 0.975
AGAGAATCGA | 1.01
TCGAATTCGT | 0.993
GCACGAGAGT | 1.05
CAATGCCAGT | 1.01
GATTGTTCG | 0.997
AAACTATGAG | 1.04
CGGTAGGTCG | 0.939
GGGGCTAAAC | 2.11
TTAGAATAAG | 0.951
TTTGTGAAGT | 1.01
TGTTTTAT | 1.03
GCTTATCACC | 1

Sequence | switch fluorescence ratio
AGGGTGTTTA | 0.989
AACGTCTGTC | 1.03
AGGCCCCTAG | 0.977
TCTGGGATGG | 0.921
AGAGCACGTT | 1.03
AGATTTGTGC | 0.971
CGGGGGAACT | 1.01
AGAAGCAAAC | 2.85
GGATCTCGCA | 0.967
AAGTCTGTCG | 0.963
ACTATCGTGT | 1.05
GGCCCGCATC | 3.71
AATTTGCCTC | 1.02
CGATACTGAG | 1.02
TACTAGCTTG | 1.01
AACGTGTAT | 0.981
AAATAGTAGG | 1.01
TTGGCCCTCG | 0.999
ATAAGAAGG | 1.01
CGATCAATTT | 1.01
ACGGAGAATA | 1.24
TGCCCTGACG | 1.08
CTAGGCGTAT | 0.945
ATTACCTCGT | 0.962
GACGACGTTT | 1.23
ACAAGGAGGA | 1.03

Sequence | switch fluorescence ratio
ATGCTGTGCG | 1.02
ACAATGCCTC | 1.02
ATGGAAGCAT | 0.967
ATCGCTAGG | 1.02
GGATTCAACG | 1
AGCAGCGACG | 1.03
AGAGAAGGTA | 0.965
GTTGTGGGGC | 0.999
TTAGCGCATT | 1.11
TTCGCCAGT | 0.976
AATTCTTGAC | 1.01
AATGTAACCG | 1
TGAGGTACAT | 1.07
TAATCGGTTA | 0.969
TTTTTACGCT | 0.969
CTTGTCACTG | 1.06
GCCGAGTGAG | 0.97
ATGGTGCGTG | 0.999
TAAATTCTAT | 0.997
CCCATAATTC | 1.07
GCATTTTGAG | 0.926
CCGCTCCAGA | 1.6
ATATGACTT | 1.03
GGTGAATTAG | 0.969
TTATTTGACG | 0.981
TGTCCTTACG | 1.03

Sequence | switch fluorescence ratio
GAAACGGCGC | 1.1
AGCATTTCCA | 1.05
TGTTTCGTAA | 1.06
CTCCTACGAT | 1.47
CAGAGTATAG | 1.01
GATAGCGAGA | 1.03
TCTTAAGACT | 1.02
ACCATCGGCG | 0.978
AACCGTTATG | 1.07
TACGTGCCTG | 0.972
TTTTACACTC | 1
CGGTGAACGT | 1.01
CGGACTATAC | 4.19
AAAGTCGGAA | 0.991
CATAGATTAC | 1.06
TCGCGATTTT | 0.993
TACATATCGT | 1.04
GACGCGATTA | 5.23
GTATTCCTTT | 0.998
TAATAGGCGC | 1.01
CTGGACCCG | 0.991
GTAGGTATGT | 0.962
CATCTGAGTT | 1
CATCCCGGGA | 1.26
TACCGTTGCT | 1.02
CACCTGCGAC | 1.78

Sequence | switch fluorescence ratio
TCGACACCTG | 1.08
ACTTTCCTGG | 1.09
GTTGATGTCT | 0.887
CGTCTTTCGT | 1.02
GGCACGAGGT | 0.948
CATCAGGGAC | 1.67
TAAAAGAA | 0.948
CTGTCCCAAA | 1.03
CTACTCAAAA | 1.22
CGCTATGCCT | 0.989
AGAGGCCGGA | 0.872
CTAGCCAGGA | 0.987
AATGGGGTGC | 1.04
CCGCTAACTT | 3.62
CTCGTAACGT | 1.03
AACATAACAA | 1.06
TTAAAGACAG | 1.02
ACATTAGATT | 1.02
CTTAGGGGG | 1.03
GGGGCCCTGA | 0.982
GTAATTGTGG | 0.945
CGGCGCTGGT | 0.942
TGTTTGCCTT | 0.995
